PubChem BioAssay AID1508624 (National Center for Advancing Translational Sciences (NCATS), 2021)
Screen size: about 48,000 compounds; about 120 (0.25%) were called active. Not shown: some 4% with an inconclusive outcome. The call rests on the fitted dose curve; in most records, active means well fitted activation curve with a large enough effect; inconclusive means small, poorly fitted or top-dose-only effect, or another doubt; inactive means no such curve, though single readings can be large or run the other way. The entries are a selection whose mix differs from that of the whole data set. Where no call is shown, the source filed none.

Assay: Primary qHTS for Identification of Small Molecule Activators of Huntingtin-Antisense Promoter Activity; further: nearly all actives have a fitted effect of over 55% in size
Conditions: HEK293 HTT-AS promoter firefly luciferase reporter, 24 h; activity change, positive = activation: at 57.5 µM (top of the series), percent change from vehicle, -100% = no light
Procedure, shortened: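 HEK293 luciferase promoter-reporter cells (2,500/well) plated 24 h, then compounds added at up to 57.5 uM final for 24 h at 37 °C. Firefly luminescence by Dual-Glo, normalized to vehicle (0%) and zero RLU (-100%).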

Row | Structure (SMILES) | activity change, positive = activation
1 | CCCOc1ccc(-c2nc(N3CCC(C)CC3)c3ccccc3n2)cc1 | -7.89%
2 | CC1=Nc2cc(C(=O)NCCc3ccccc3)ccc2Sc2c(C)ccc(C)c21 | inactive: -39.9%
3 | COc1ccccc1NC(=O)C1=C(C)Nc2nnnn2C1c1cc(Br)c(O)c(OC)c1 (stereo unspecified) | -12.4%
4 | Cc1ccc(NC(=O)Nc2sc3nc4n(c(=O)c3c2C)CCC(C)CC4)c(Cl)c1 (stereo unspecified) | -2.4%
5 | CCOc1ccc(Nc2nnc(-n3nc(C)cc3C)c3ccccc23)cc1 | -4.3%
6 | O=C(Nc1cccc(O)c1)c1noc2c1CCc1ccccc1-2 | 23.4%
7 | CCOC(=O)CSc1nc2sc3c(c2c(=O)n1-c1ccccc1)CC(C(C)C)OC3 (stereo unspecified) | -9.48%
8 | NC(=O)c1ncn([C@@H]2O[C@H](CO)[C@@H](O)[C@@H]2O)c1O | inactive: -33.9%
9 | O=C(NCCc1ccccc1)c1ccc(CSc2nc3ccncc3n2Cc2ccc(F)cc2)cc1 | inactive: -10.4%
10 | Cc1ccc(C)c(N2CCN(C3=C(c4ccccc4)C(=O)c4ccccc43)CC2)c1 | 8.33%
11 | O=S(=O)(Nc1cccc(-c2ccc(N3CCCC3)nn2)c1)c1ccc(F)c(C(F)(F)F)c1 | -9.43%
12 | CC(=O)c1ccc(NC(=O)CCc2c(C)nn(-c3ccc(N4CCCCC4)nn3)c2C)cc1 | 22.3%
13 | CCOC(=O)c1c(-c2ccccc2)oc2ccc(N(C(C)=O)S(=O)(=O)c3ccc(C)cc3)cc12 | -16.2%
14 | Cc1nn(-c2ccc(N3CCCCC3)nn2)c(C)c1CCC(=O)NCc1ccc(Cl)cc1 | -42.4%
15 | CCOC(=O)c1cc(C)n(CC2CCC(C(=O)Nc3ccc(C(=O)OC)cc3)CC2)c1C (stereo unspecified) | -26.9%
16 | CCCc1cc(=O)[nH]c(Nc2cc(Cl)ccc2OC)n1 | -20.4%
17 | Cc1nc2ccn(Cc3ccco3)c(=O)c2cc1C(=O)NCc1ccc(F)cc1 | -17.3%
18 | Cc1oc2ccc(O)c(CN3CCOCC3)c2c1C(=O)Nc1cccc(Cl)c1C | -5.4%
19 | Cc1ccc(OCCCSc2nc(-c3ccc(C(C)(C)C)cc3)nc3cc(=O)[nH]n23)cc1C | -9.48%
20 | Cc1nc2scc(C)n2c(=O)c1S(=O)(=O)Nc1cccc(C(F)(F)F)c1 | -38.7%
21 | Cc1cc(-c2ccc(S(=O)(=O)Nc3ccc(Cl)cc3C)cc2)on1 | -31.5%

Row | Structure (SMILES) | activity change, positive = activation
22 | Cc1ccc(C)c(CNC(=O)c2cc3ccccn3n2)c1 | 11.2%
23 | CC1Cc2cc(S(=O)(=O)NCc3ccc(N(C)C)cc3)ccc2N1C(=O)C1CCC1 (stereo unspecified) | -30.5%
24 | CC(=O)N[C@H]1[C@H]([C@H](O)[C@H](O)CO)OC(C(=O)O)=C[C@@H]1N=C(N)N | inactive: 9.04%
25 | Cc1ccc(CN2CCN(C3CCN(C(=O)c4ccc(C)cc4)CC3)C(=O)C2=O)cc1 | -8.44%
26 | CC1CCN(Cc2c(O)ccc3c(=O)c(-c4ccc(Cl)cc4)c(C(F)(F)F)oc23)CC1 | 1.51%
27 | Cc1ccc(CSc2nc(-c3ccc(C(C)(C)C)cc3)nc3cc(=O)[nH]n23)cc1 | -13.3%
28 | O=S(=O)(Nc1ccc(-c2ccc(N3CCCC3)nn2)cc1)c1ccc(OC(F)(F)F)cc1 | 0.832%
29 | Cc1ccc(-c2nnc(Nc3cccc(O)c3)c3ccccc23)cc1S(=O)(=O)N1CCCCC1 | -38.2%
30 | COC(=O)c1ccc(NC(=O)CC2C(=O)N(c3cccc(OC)c3)C(=O)N2Cc2cccs2)cc1 (stereo unspecified) | -4.47%
31 | COc1ccc(S(=O)(=O)Nc2cccc(-c3ccc(N4CCCC4)nn3)c2)c(OC)c1 | 1.24%
32 | CCc1ccc(S(=O)(=O)Nc2cc3c(C(=O)OCc4ccccc4)c(C)oc3c3ccccc23)cc1 | -4.84%
33 | COC(=O)CN1C(=O)CSc2ccc(S(=O)(=O)Nc3cc(C)ccc3C)cc21 | -13.7%
34 | Cc1ccc(-c2nnc(Nc3cccc(Cl)c3)c3ccccc23)cc1S(=O)(=O)N1CCCCC1 | -20.8%
35 | COC(=O)c1cc2oc3ccccc3c2n1Cc1nc(-c2ccc(Cl)cc2)oc1C | 2.41%
36 | COc1ccccc1-c1nc2c(c(SCC(=O)Nc3ccc(C)c(C)c3)n1)Cc1c(CO)cnc(C)c1O2 | inactive: -27.2%
37 | CCOc1ccc(CCNC(c2cccc(Cl)c2)c2nnc(-c3ccccc3)o2)cc1OCC (stereo unspecified) | -19.7%
38 | O=C(NCCc1ccc(Cl)cc1)c1cnc2sc(N3CCCCC3)nn2c1=O | -3.06%
39 | Cc1ccccc1NC(=O)c1c(C)oc2ccc(O)c(CN3CCC(C)CC3)c12 | -15.9%
40 | COc1cccc2c1Oc1nc(-c3ccccc3)nc(SCC(=O)Nc3ccccc3)c1C2 | inactive: -23.3%
41 | Cc1nc2ccn(Cc3ccco3)c(=O)c2cc1C(=O)NCc1ccccc1F | -13.9%
42 | O=C(NCc1ccccc1Cl)C1CCN(S(=O)(=O)Cc2ccccc2)CC1 | 1.43%

Row | Structure (SMILES) | activity change, positive = activation
43 | COc1ccccc1CCN1COc2c(cc3c(C)c(C)c(=O)oc3c2C)C1 | -9.7%
44 | CCc1ccc(NS(=O)(=O)c2ccc(-c3cc(C)no3)cc2)cc1 | -26.8%
45 | N#CNC(=NCCCCCCOc1ccc(Cl)cc1)Nc1ccncc1 | inactive: -43.8%
46 | Cc1cc(Cl)ccc1NC(=O)Cc1ccc(NC(=O)N2CCCCc3ccccc32)cc1 | inactive: -3.06%
47 | CC(=O)N1CCCc2cc(S(=O)(=O)N3CCCC(C(=O)N4CCN(c5ccccc5)CC4)C3)ccc21 (stereo unspecified) | inactive: -24.3%
48 | COc1ccc2c(c1)cc1c(=O)n(CC(=O)NC(C)CCc3ccccc3)nc(C)n12 (stereo unspecified) | -8.69%
49 | Cc1ccc2oc(-c3ccc(Cl)c(NC(=O)Cc4ccccc4)c3)nc2c1 | 0.765%
50 | COc1ccc(C2(Nc3cccc(F)c3)C(=O)c3ccccc3C2=O)cc1 | -9.33%
51 | Cc1nn(-c2ccc(N3CCCCC3)nn2)c(C)c1CCC(=O)Nc1ccc(F)cc1F | 16%
52 | CCCCN(CC)C(=O)c1nn(C)c2c1CSc1ccccc1-2 | inactive: -4.25%
53 | Cc1ccc(C)c(CN2C(=O)C(O)(c3c(C)[nH]c4ccccc34)c3ccccc32)c1 (stereo unspecified) | inactive: -25.9%
54 | CCOC(=O)c1cc(C)n(CC2CCC(C(=O)Nc3ccccc3OC)CC2)c1C (stereo unspecified) | -5.18%
55 | Clc1ccccc1-c1nnc(COc2ccccc2)o1 | 58.8%
56 | O=C(C1CCN(S(=O)(=O)Cc2ccccc2)CC1)N1CCN(c2cccc(C(F)(F)F)c2)CC1 | -9.9%
57 | O=C(CSC1=Nc2ccccc2N=C(c2ccc(F)cc2)C1)Nc1ccccc1 | inactive: -28%
58 | Cc1nc2scc(C)n2c(=O)c1S(=O)(=O)NCCc1ccccc1 | 2.32%
59 | Cc1cc(Nc2ccc(C(=O)O)c(O)c2)n2ncnc2n1 | 9.1%
60 | COc1cc(Cl)c(C)cc1NC(=O)c1cnn(-c2ccc(C)cc2)c1-n1cccc1 | 1.92%
61 | COc1cccc(C(=O)N2CCC(N3CCN(Cc4ccc(F)cc4)C(=O)C3=O)CC2)c1 | 3.24%
